Screen size: about 150,000 compounds; about 540 (0.36%) showed an effect of 50% or more. The list shows a part of the results.
tested on: Plasmodium falciparum; assay: Primary screen in NF54 nanoGlo assay, in single point, at 2uM, 72h; a lower Z score goes with more inhibition; assay type: functional, Erythrocyte; settings: timepoint 72 hour

Compared with `CCCCn1ccnc1-c1cccc(NC(=O)NC[C@H](O)c2ccc(F)cc2)c1`, `Cc1ccnc(NC(=O)c2ccc(-c3ccccc3)cc2)c1` is lower in “% Inhibition” value: 2% for the first, -1% for the second.

Compared with `CCc1noc(C)c1C(=O)N[C@@H]1[C@H]2CCO[C@H]2[C@H]1Cc1ccccc1`, `CCCC(CCc1ccccc1)NC(=O)NC1CCN(C)C1=O` (stereo unspecified) is higher in “% Inhibition” value: -10% for the first, -5% for the second.

Compared with `CCOc1cc(C2N[C@H](C(=O)O)Cc3c2[nH]c2ccccc32)ccc1O` (stereo partly specified), `COc1cccc(CNC(=O)c2coc(COc3ccccc3F)n2)c1` is higher in “% Inhibition” value: -8% for the first, -6% for the second.

First: CC(=O)Nc1cccc(NC(=O)c2cc(C)n(-c3ccc4c(c3)OCCO4)c2C)c1
Second: Cc1nn(CC(=O)N2CCCC[C@@H]2CO)c(=O)n1-c1ccc2c(c1)OCO2
The “% Inhibition” value of the first is higher: 6% for the first, -5% for the second.

Going from `C[C@@H](C(=O)NCc1ccnn1C)n1ccnc1-c1ccccc1` to `Brc1ccc(NCc2[nH]nnc2-c2ccccc2)cc1`, the “% Inhibition” value rises from -2% to 39%.

First: C[C@](O)(CCc1ccccc1)CNC(=O)C(=O)Nc1cccc(C(F)(F)F)c1
Second: COc1ccc(CCNC(=O)c2cc(OCc3ccccc3)no2)cc1
The “% Inhibition” value of the first is higher: -1% for the first, -10% for the second.

Going from `CC1CCCCC1N(C)C(=O)Cn1cc(-c2ccccc2)ncc1=O` (stereo unspecified) to `C/C=C(\C)CN1CCC2(CC1)c1ccccc1[C@@H](NC(=O)c1cccc(F)c1)[C@@H]2OC`, the “% Inhibition” value rises from -25% to -8%.

Going from `CN1CCC(OC2CCN(S(=O)(=O)c3cccc(Br)c3)CC2)CC1` to `CCCc1ccc(S(=O)(=O)N2CCC3(CC2)NCCN=C3NCc2ccccc2)cc1`, the “% Inhibition” value rises from -10% to -3%.

`CCNc1nc(NC(C)C)nc(Oc2ccc(OCCOc3ccccc3C)nn2)n1` and `CCC(=O)N(C)c1nc2ccccc2n(CC(=O)Nc2ccc(C)cc2C)c1=O` are the same in “% Inhibition” value: 3% for the first, 3% for the second.

Compared with `CC(C)[C@@H]1CN(c2nnc(CN(C)C)n2C)CCO1`, `CC(C1CC1)N(C)S(=O)(=O)NC1CCCc2nn(C)cc21` (stereo unspecified) is lower in “% Inhibition” value: -1% for the first, -5% for the second.

First: CCCN(CCC)c1ccc(NS(=O)(=O)c2ccc3c(c2)CCCC3)cc1C(=O)O
Second: Cn1c(CNC(=O)C2CCC2)nc2c1CN(C(=O)Nc1ccc(C(F)(F)F)cc1)CC2
The “% Inhibition” value of the first is lower: -18% for the first, -4% for the second.

Going from `CCCn1c(O)c(C#N)c(C)c(CN2CCCCC2)c1=O` to `O=S1(=O)CCCN(Cc2ncc(Br)s2)CC1`, the “% Inhibition” value rises from -18% to -12%.

Going from `CCC(C(=O)NC(COC)c1ccco1)c1ccccc1` (stereo unspecified) to `COCCc1noc(CN2C[C@@H]3CC[C@H]2CN(C(=O)c2ccccc2)C3)n1`, the “% Inhibition” value falls from 9% to -12%.

`CCCn1nccc1C(=O)N[C@H]1CCc2c[nH]nc2C1` and `Cc1cccc(CCNC(=O)N2CCN(c3nccnc3C#N)C[C@@H]2C)n1` are the same in “% Inhibition” value: -13% for the first, -13% for the second.

First: Cc1ccc(C(O)CNC2C3CCOC3C2(C)C)cc1 (stereo unspecified)
Second: CC(O)CNC(c1ccc(Br)cc1)C1CCOCC1 (stereo unspecified)
The “% Inhibition” value of the first is higher: 1% for the first, -11% for the second.

First: Cc1ccc(N2C(=O)c3cc(C(C)(C)C)nn3C[C@@]2(C)C(=O)NCc2ccccc2)cc1
Second: CCc1nn(-c2ccccc2)c2c1CN(C(=O)NCCC(C)C)[C@H](c1ccc(C)cc1)c1cccn1-2
The “% Inhibition” value of the first is higher: 11% for the first, -8% for the second.

Going from `COc1ccc(CCNC(=O)C(=Cc2cccc(OC)c2OC)C(=O)NCCc2ccc(OC)cc2)cc1` to `O=C(NCc1ccccc1)c1ccc(COc2cccc3ccccc23)o1`, the “% Inhibition” value falls from 6% to -4%.

First: COc1ccc(OC)c(CNc2ncnc3onc(-c4cc(F)cc(F)c4)c23)c1
Second: COc1cc([C@H]2CC(=O)NCc3nc4ccccn4c32)cc2c1OCO2
The “% Inhibition” value of the first is higher: -1% for the first, -12% for the second.

Compared with `COC(=O)C1COCCN1C(=O)CCOCC1CCCO1` (stereo unspecified), `Cn1cc(C(=O)N2CC[C@H](N3CCOCC3)[C@H](CCCO)C2)c2ccccc21` is higher in “% Inhibition” value: -12% for the first, -2% for the second.

Compared with `COCc1noc(CNC(=O)c2ccc(CN(C)C)o2)n1`, `O=C(Nc1nncs1)c1cc(=O)c(OCc2ccc(Cl)cc2)c[nH]1` is higher in “% Inhibition” value: 0% for the first, 11% for the second.

Compared with `c1csc(-c2ccc(-c3nc4c([nH]3)CCNC4)s2)c1`, `c1cn(Cc2ccc3nsnc3c2)c(-c2cc3n(n2)CCCNC3)n1` is lower in “% Inhibition” value: 9% for the first, -2% for the second.

Going from `Cc1ccccc1CCCn1ccnn1` to `Cc1nc2ccccn2c(=O)c1CCN[C@@H](C)c1cccc(-n2cccn2)c1`, the “% Inhibition” value rises from -5% to 0%.

First: Cn1ncc2c1CCCC2NC1CCOC2(CCCC2)C1 (stereo unspecified)
Second: CC(C)(C)N1CC[C@H]1C(=O)NC1(c2ncccn2)CCOCC1
The “% Inhibition” value of the first is lower: -5% for the first, 0% for the second.

First: Cc1ccc(C(=O)N(CC(F)(F)F)[C@@H](C)C2CC2)cn1
Second: Cc1nn(C)c(S(=O)(=O)N2CCc3cnccc32)c1C(F)F
The “% Inhibition” value of the first is higher: 1% for the first, -2% for the second.

Going from `COc1ccc(NC(=O)Cn2nc3c(N4CCN(c5ccccc5)CC4)nccn3c2=O)cc1OC` to `O=c1scc(C(F)(F)F)n1CN1CCN(c2cccc(Cl)c2)CC1`, the “% Inhibition” value falls from 9% to 2%.

Going from `CNc1cc([C@H]2C[C@@H](NC(=O)c3sc(OC)nc3C)C2)nc(N)n1` to `Cc1cc2c(NCC3(CCO)CC3)nccn2n1`, the “% Inhibition” value falls from 2% to -8%.

For `CN1C(=O)CC[C@]2(CNC(=O)c3ccccc3F)CCC=C12`, the “% Inhibition” value was -4%.

Compared with `CCCCn1ccnc1-c1cccc(NC(=O)NC[C@H](O)c2ccc(F)cc2)c1`, `Cc1ccnc(NC(=O)c2ccc(-c3ccccc3)cc2)c1` is higher in Z score: -0.2 for the first, 0.21 for the second.

Going from `CCc1noc(C)c1C(=O)N[C@@H]1[C@H]2CCO[C@H]2[C@H]1Cc1ccccc1` to `CCCC(CCc1ccccc1)NC(=O)NC1CCN(C)C1=O` (stereo unspecified), the Z score falls from 1.59 to 0.83.

Compared with `CCOc1cc(C2N[C@H](C(=O)O)Cc3c2[nH]c2ccccc32)ccc1O` (stereo partly specified), `COc1cccc(CNC(=O)c2coc(COc3ccccc3F)n2)c1` is higher in Z score: 0.95 for the first, 1.25 for the second.

First: CC(=O)Nc1cccc(NC(=O)c2cc(C)n(-c3ccc4c(c3)OCCO4)c2C)c1
Second: Cc1nn(CC(=O)N2CCCC[C@@H]2CO)c(=O)n1-c1ccc2c(c1)OCO2
The Z score of the first is lower: -1.13 for the first, 0.53 for the second.

Going from `C[C@@H](C(=O)NCc1ccnn1C)n1ccnc1-c1ccccc1` to `Brc1ccc(NCc2[nH]nnc2-c2ccccc2)cc1`, the Z score falls from 0.32 to -1.35.

Compared with `C[C@](O)(CCc1ccccc1)CNC(=O)C(=O)Nc1cccc(C(F)(F)F)c1`, `COc1ccc(CCNC(=O)c2cc(OCc3ccccc3)no2)cc1` is higher in Z score: 0.12 for the first, 1.95 for the second.

Compared with `CC1CCCCC1N(C)C(=O)Cn1cc(-c2ccccc2)ncc1=O` (stereo unspecified), `C/C=C(\C)CN1CCC2(CC1)c1ccccc1[C@@H](NC(=O)c1cccc(F)c1)[C@@H]2OC` is lower in Z score: 3.16 for the first, 0.98 for the second.

Going from `CN1CCC(OC2CCN(S(=O)(=O)c3cccc(Br)c3)CC2)CC1` to `CCCc1ccc(S(=O)(=O)N2CCC3(CC2)NCCN=C3NCc2ccccc2)cc1`, the Z score falls from 1.25 to 0.39.

First: CCNc1nc(NC(C)C)nc(Oc2ccc(OCCOc3ccccc3C)nn2)n1
Second: CCC(=O)N(C)c1nc2ccccc2n(CC(=O)Nc2ccc(C)cc2C)c1=O
The Z score of the first is higher: -0.36 for the first, -0.47 for the second.

Going from `CC(C)[C@@H]1CN(c2nnc(CN(C)C)n2C)CCO1` to `CC(C1CC1)N(C)S(=O)(=O)NC1CCCc2nn(C)cc21` (stereo unspecified), the Z score rises from 0.14 to 0.75.

Going from `CCCN(CCC)c1ccc(NS(=O)(=O)c2ccc3c(c2)CCCC3)cc1C(=O)O` to `Cn1c(CNC(=O)C2CCC2)nc2c1CN(C(=O)Nc1ccc(C(F)(F)F)cc1)CC2`, the Z score falls from 1.72 to 0.52.

Compared with `CCCn1c(O)c(C#N)c(C)c(CN2CCCCC2)c1=O`, `O=S1(=O)CCCN(Cc2ncc(Br)s2)CC1` is lower in Z score: 2.16 for the first, 1.92 for the second.

First: CCC(C(=O)NC(COC)c1ccco1)c1ccccc1 (stereo unspecified)
Second: COCCc1noc(CN2C[C@@H]3CC[C@H]2CN(C(=O)c2ccccc2)C3)n1
The Z score of the first is lower: -1.79 for the first, 1.7 for the second.

Going from `CCCn1nccc1C(=O)N[C@H]1CCc2c[nH]nc2C1` to `Cc1cccc(CCNC(=O)N2CCN(c3nccnc3C#N)C[C@@H]2C)n1`, the Z score falls from 2.17 to 1.38.

Compared with `Cc1ccc(C(O)CNC2C3CCOC3C2(C)C)cc1` (stereo unspecified), `CC(O)CNC(c1ccc(Br)cc1)C1CCOCC1` (stereo unspecified) is higher in Z score: -0.18 for the first, 1.16 for the second.

First: Cc1ccc(N2C(=O)c3cc(C(C)(C)C)nn3C[C@@]2(C)C(=O)NCc2ccccc2)cc1
Second: CCc1nn(-c2ccccc2)c2c1CN(C(=O)NCCC(C)C)[C@H](c1ccc(C)cc1)c1cccn1-2
The Z score of the first is lower: -1.11 for the first, 1.54 for the second.

First: COc1ccc(CCNC(=O)C(=Cc2cccc(OC)c2OC)C(=O)NCCc2ccc(OC)cc2)cc1
Second: O=C(NCc1ccccc1)c1ccc(COc2cccc3ccccc23)o1
The Z score of the first is lower: -0.63 for the first, 0.48 for the second.

Compared with `COc1ccc(OC)c(CNc2ncnc3onc(-c4cc(F)cc(F)c4)c23)c1`, `COc1cc([C@H]2CC(=O)NCc3nc4ccccn4c32)cc2c1OCO2` is higher in Z score: 0.18 for the first, 1.6 for the second.

First: COC(=O)C1COCCN1C(=O)CCOCC1CCCO1 (stereo unspecified)
Second: Cn1cc(C(=O)N2CC[C@H](N3CCOCC3)[C@H](CCCO)C2)c2ccccc21
The Z score of the first is higher: 1.62 for the first, 0.4 for the second.

First: COCc1noc(CNC(=O)c2ccc(CN(C)C)o2)n1
Second: O=C(Nc1nncs1)c1cc(=O)c(OCc2ccc(Cl)cc2)c[nH]1
The Z score of the first is higher: 0.02 for the first, -1.4 for the second.

Going from `c1csc(-c2ccc(-c3nc4c([nH]3)CCNC4)s2)c1` to `c1cn(Cc2ccc3nsnc3c2)c(-c2cc3n(n2)CCCNC3)n1`, the Z score rises from -1.71 to 0.2.

First: Cc1ccccc1CCCn1ccnn1
Second: Cc1nc2ccccn2c(=O)c1CCN[C@@H](C)c1cccc(-n2cccn2)c1
The Z score of the first is higher: 1.04 for the first, 0.05 for the second.

Compared with `Cn1ncc2c1CCCC2NC1CCOC2(CCCC2)C1` (stereo unspecified), `CC(C)(C)N1CC[C@H]1C(=O)NC1(c2ncccn2)CCOCC1` is lower in Z score: 0.94 for the first, -0.01 for the second.

First: Cc1ccc(C(=O)N(CC(F)(F)F)[C@@H](C)C2CC2)cn1
Second: Cc1nn(C)c(S(=O)(=O)N2CCc3cnccc32)c1C(F)F
The Z score of the first is lower: -0.12 for the first, 0.23 for the second.

Compared with `COc1ccc(NC(=O)Cn2nc3c(N4CCN(c5ccccc5)CC4)nccn3c2=O)cc1OC`, `O=c1scc(C(F)(F)F)n1CN1CCN(c2cccc(Cl)c2)CC1` is higher in Z score: -0.85 for the first, -0.34 for the second.

Compared with `CNc1cc([C@H]2C[C@@H](NC(=O)c3sc(OC)nc3C)C2)nc(N)n1`, `Cc1cc2c(NCC3(CCO)CC3)nccn2n1` is higher in Z score: -0.18 for the first, 1.23 for the second.

For `CN1C(=O)CC[C@]2(CNC(=O)c3ccccc3F)CCC=C12`, the Z score was 0.65.

Reference: ChEMBL document CHEMBL4888484, “Replenishing the malaria drug discovery pipeline: Screening and hit evaluation of the MMV Hit Generation Library 1 (HGL1) against asexual blood stage Plasmodium falciparum ,using a nano luciferase reporter read-out” (2022)
